# Assay results published in the supplement of paper PMC3334620.
# In all, about 33,000 sequences were measured (“E-score (-0.5 to 0.5)”: median about -0.012, highest 2% from about 0.29 on). Some of the results follow.
# Biological target: T1, Ybr033w (UniProt P38073)
# T1 sequence: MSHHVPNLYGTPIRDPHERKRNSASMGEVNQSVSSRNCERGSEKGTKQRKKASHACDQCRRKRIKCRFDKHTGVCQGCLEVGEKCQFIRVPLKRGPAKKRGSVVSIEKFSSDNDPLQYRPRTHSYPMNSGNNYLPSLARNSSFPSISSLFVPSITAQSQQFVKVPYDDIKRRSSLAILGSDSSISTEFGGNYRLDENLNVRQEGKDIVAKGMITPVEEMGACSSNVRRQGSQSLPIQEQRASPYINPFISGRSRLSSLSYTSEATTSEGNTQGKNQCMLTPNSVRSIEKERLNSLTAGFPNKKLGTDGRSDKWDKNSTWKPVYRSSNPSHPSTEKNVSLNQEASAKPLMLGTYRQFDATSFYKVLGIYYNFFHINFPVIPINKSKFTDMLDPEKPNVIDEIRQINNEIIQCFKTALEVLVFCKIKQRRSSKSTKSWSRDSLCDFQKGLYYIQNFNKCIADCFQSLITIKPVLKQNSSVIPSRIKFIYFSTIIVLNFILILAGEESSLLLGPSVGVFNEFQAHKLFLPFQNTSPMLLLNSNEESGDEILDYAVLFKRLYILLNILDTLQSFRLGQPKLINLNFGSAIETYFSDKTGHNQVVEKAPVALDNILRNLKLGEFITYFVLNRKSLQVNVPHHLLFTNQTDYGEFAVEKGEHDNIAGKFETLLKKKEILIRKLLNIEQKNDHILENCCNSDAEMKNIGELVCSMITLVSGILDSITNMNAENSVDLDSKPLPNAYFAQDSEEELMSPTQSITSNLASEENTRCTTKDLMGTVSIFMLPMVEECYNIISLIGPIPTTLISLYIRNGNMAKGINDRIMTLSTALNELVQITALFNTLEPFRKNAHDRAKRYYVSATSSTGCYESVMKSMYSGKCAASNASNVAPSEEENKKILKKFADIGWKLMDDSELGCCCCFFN
# Assay: PBM E-score (8-mer binding enrichment) (E-score (-0.5 to 0.5)); higher = stronger / more preferred TF binding; most listed sequences are background and not binding sites
# Settings: protein concentration: 200 nM; construct: GST-full length
# Procedure, shortened: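 Using PURExpress in vitro transcription/translation, GST-tagged yeast transcription factors were made in full-length or DNA-binding-domain form. These were applied at about 100-200 nM to double-stranded universal all-10-mer Agilent arrays, and bound protein was detected with fluorescent anti-GST. Scans were normalised with masliner before the Universal PBM Analysis Suite assigned E-scores to ungapped eight-base words pooled with their reverse complements.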
row,Sequence,PBM E-score
1,GGAAGGCA,-0.183
2,CCATTTTA,0.181
3,AATGCGCC,-0.0289
4,ATTTCTCC,0.404
5,AACTTTCT,0.0948
6,ATAGTAGC,0.16
7,ATAGACGA,0.0163
8,CCATGAAG,-0.00549
9,GCGCGCCC,-0.231
10,GCGCACTA,-0.0897
11,ACTATTGC,0.177
12,CTACAACA,0.0972
13,AAGTGAAA,0.29
14,AGGATGTC,-0.0494
15,GAAACATA,0.164
16,CTGGCGGA,-0.157
17,CGATGACA,-0.0734
18,CTAGCCCA,-0.142
19,ATCAGCTA,-0.0753
20,CGCTCACA,-0.0795
21,AGGACCTG,-0.19
22,AGTTCAGA,0.243
23,CCGTCTGA,-0.128
24,CCGTTTGA,-0.137
25,ACTTAAGA,0.136

row,Sequence,PBM E-score
1,ACAATAGC,0.132
2,GTGCGGCA,-0.128
3,CCGTAACG,-0.224
4,TCAGGAGA,0.144
5,AACGTGTC,-0.0306
6,GGAGAGCC,-0.372
7,ACGGTATA,-0.217
8,GAGGTAAA,0.139
9,GAGGGAAC,-0.239
10,GCTTACAC,-0.0308
11,ACGTTGGG,-0.0582
12,ATCCTGCC,-0.248
13,CCGCTCAC,-0.146
14,GGAACAAC,0.454
15,GATGCGAC,-0.0981
16,GTTTCCCA,0.0398
17,ACTTGCCT,-0.00707
18,CACGAAGC,-0.0581
19,AAAATTCC,0.231
20,CGCGGCAC,-0.0926
21,GTGGCGAA,-0.0825
22,GAACAGCA,0.161
23,ACAGTCGT,-0.164
24,CCGAGGAC,-0.0855
25,GAAACGTA,0.175

row,Sequence,PBM E-score
1,GCTCAACA,0.0367
2,AAGCGACT,-0.126
3,ATGACAAC,0.111
4,TGCATAAA,0.218
5,AAGACTCT,0.135
6,AGGACCTC,-0.167
7,GGTTGTCA,0.0462
8,ACGGGGTA,-0.251
9,ACTTCGTC,0.084
10,AGTTCCGA,0.134
11,GCATTTGA,0.136
12,CCGACTTC,-0.29
13,CTTGCTGA,0.0188
14,CACCGCCC,-0.163
15,CCTATAGG,-0.151
16,ACACGGAT,0.0519
17,CGAGTGTA,-0.102
18,CGCGAGTC,-0.0881
19,CTAGGACA,0.0391
20,AAGCTTCA,0.0148
21,ACAATACT,0.219
22,CTTAATCA,0.187
23,ACGACATA,-0.0109
24,AACGTTGC,0.0686
25,AGCAGCGA,0.0113

row,Sequence,PBM E-score
1,GCAAACCC,-0.184
2,AAACGGGT,0.00668
3,GTAAGGGA,-0.113
4,CGTCTGGC,0.0541
5,CTACGCAG,-0.0272
6,GCTGTAAA,0.181
7,ATCGCAGC,0.018
8,CCGGCAGC,-0.19
9,AGGCTCCG,-0.113
10,AAACGGGG,-0.0586
11,ATACACAA,0.119
12,GTCGCCAA,-0.151
13,GAATTTAA,0.0723
14,TCACAACA,0.178
15,CACCAACA,-0.0893
16,AGGTACAG,-0.0511
17,CATCTGTA,-0.105
18,AGTGGCTC,-0.0248
19,AAGAACTA,0.255
20,TAGAAACA,0.0789
21,TCGAGTCA,-0.0907
22,GATATTGA,0.177
23,ATATGACA,0.232
24,ATGTTGGG,-0.175
25,CATGGCGA,-0.106

row,Sequence,PBM E-score
1,CTACCACA,0.092
2,CCACTCAA,0.0248
3,CCGCCTGC,-0.279
4,GGGGGAGA,-0.128
5,ACACCTTC,0.0699
6,GCTAGGCA,-0.146
7,ATTCGACA,0.0819
8,AGGACGGC,-0.235
9,AGCCGCGG,-0.0723
10,CGGGTTCC,-0.0326
11,AACTGAAC,0.0286
12,TACAGCAA,0.209
13,AACCCTTA,0.115
14,AGGAAGGA,-0.124
15,CATAAAAC,0.0263
16,CCAGCTGA,-0.0252
17,AAATTAGG,0.138
18,AGGACTAC,-0.141
19,ACCCAGAA,0.206
20,AATAATTC,0.386
21,ATCCCTGC,-0.00089
22,ATAATGAA,0.331
23,GCCTCTGA,-0.22
24,AAGAGTCC,-0.121
25,ATTTAGGA,0.192

row,Sequence,PBM E-score
1,CAGGCACC,-0.332
2,CTCGTCAG,-0.109
3,ACATGCCA,-0.0644
4,CCGCTCTC,-0.291
5,CGCCTTGC,-0.183
6,AGGATTTG,0.114
7,TGACGTAA,5e-05
8,CGTCTTAG,-0.218
9,ATAGCAGG,0.095
10,CGCTGTAG,-0.0734
11,AACTCAGG,-0.191
12,GACCAGAC,-0.0243
13,ACGCGGAG,-0.11
14,CGGTCCCC,-0.297
15,AGGAGATA,-0.00898
16,GGGCCGTA,-0.157
17,CACTCGAA,0.04
18,GGCTATCA,0.109
19,AGGGAGGG,-0.199
20,AGTAGTGA,0.118
21,AGAGGGAT,-0.168
22,CTCTACCA,-0.0398
23,GCGGACAA,0.201
24,AGTATGCA,0.0339
25,AAGAGTTG,0.125

row,Sequence,PBM E-score
1,CAGAGGCG,-0.164
2,TAGTTACA,0.0282
3,CAGTCTTC,-0.146
4,AAGTGAAT,0.239
5,CTCGCCAG,-0.0879
6,GTCCGGAC,0.182
7,CACCCGGC,-0.293
8,AGAATGAC,-0.00516
9,ACCAATCG,0.00659
10,ACCTCAGG,-0.12
11,GTTCCAAC,0.0406
12,ACTCGCTG,-0.0449
13,GAAGGAAC,0.0576
14,TGCCGCCA,-0.168
15,AATCAGAT,0.108
16,AAGTCGGA,0.00463
17,AGCTCGAG,-0.142
18,AACTAGAC,0.0442
19,CGTATACG,0.0447
20,GTCATATA,0.223
21,GAGCGCAC,-0.202
22,ATCAGGCC,-0.0759
